The campaign covered roughly 220,000 compounds. About 5,700 (2.6%) were called active. The inconclusive results got no clear call from the source; some entries with a clear call stand among them for comparison. Calls follow the shape of the dose curve; as a rule, active = well fitted inhibition curve with a large enough effect; inconclusive = small, poorly fitted or top-dose-only effect; inactive = no such curve, though single readings can be large or run the other way. Where the call is inconclusive, the potency comes from a doubtful curve fit.
biological target: Lysine-specific demethylase 5B (Homo sapiens) (UniProt Q9UGL1); test: Primary screen for KDM5B Histone Demethylases FDH-coupled qHTS; details: FDH-coupled NADH fluorescence (FDH is formaldehyde dehydrogenase); activity change, negative = inhibition: at 57.7 µM (top of the series) unless noted; also: nearly all actives have a fitted effect of over 70% in size; as to activity change, negative = inhibition: 0% is about no effect
Summary of the method: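 Measured: NADH fluorescence change, 30 min, RT. System: KDM5BΔAP 200 nM final, H3K4me3 peptide, α-KG, Fe(II), ascorbate, NAD⁺ plus FDH, pH 7.5 HEPES. Compounds: titrated, 10 min pre-incubation with enzyme.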
Potency is read from the fitted curve at half-maximal effect; tags tell the direction and shape of the fitted curve.

Chain of UniProt Q9UGL1 (Q9UGL1 whole entry, looked up): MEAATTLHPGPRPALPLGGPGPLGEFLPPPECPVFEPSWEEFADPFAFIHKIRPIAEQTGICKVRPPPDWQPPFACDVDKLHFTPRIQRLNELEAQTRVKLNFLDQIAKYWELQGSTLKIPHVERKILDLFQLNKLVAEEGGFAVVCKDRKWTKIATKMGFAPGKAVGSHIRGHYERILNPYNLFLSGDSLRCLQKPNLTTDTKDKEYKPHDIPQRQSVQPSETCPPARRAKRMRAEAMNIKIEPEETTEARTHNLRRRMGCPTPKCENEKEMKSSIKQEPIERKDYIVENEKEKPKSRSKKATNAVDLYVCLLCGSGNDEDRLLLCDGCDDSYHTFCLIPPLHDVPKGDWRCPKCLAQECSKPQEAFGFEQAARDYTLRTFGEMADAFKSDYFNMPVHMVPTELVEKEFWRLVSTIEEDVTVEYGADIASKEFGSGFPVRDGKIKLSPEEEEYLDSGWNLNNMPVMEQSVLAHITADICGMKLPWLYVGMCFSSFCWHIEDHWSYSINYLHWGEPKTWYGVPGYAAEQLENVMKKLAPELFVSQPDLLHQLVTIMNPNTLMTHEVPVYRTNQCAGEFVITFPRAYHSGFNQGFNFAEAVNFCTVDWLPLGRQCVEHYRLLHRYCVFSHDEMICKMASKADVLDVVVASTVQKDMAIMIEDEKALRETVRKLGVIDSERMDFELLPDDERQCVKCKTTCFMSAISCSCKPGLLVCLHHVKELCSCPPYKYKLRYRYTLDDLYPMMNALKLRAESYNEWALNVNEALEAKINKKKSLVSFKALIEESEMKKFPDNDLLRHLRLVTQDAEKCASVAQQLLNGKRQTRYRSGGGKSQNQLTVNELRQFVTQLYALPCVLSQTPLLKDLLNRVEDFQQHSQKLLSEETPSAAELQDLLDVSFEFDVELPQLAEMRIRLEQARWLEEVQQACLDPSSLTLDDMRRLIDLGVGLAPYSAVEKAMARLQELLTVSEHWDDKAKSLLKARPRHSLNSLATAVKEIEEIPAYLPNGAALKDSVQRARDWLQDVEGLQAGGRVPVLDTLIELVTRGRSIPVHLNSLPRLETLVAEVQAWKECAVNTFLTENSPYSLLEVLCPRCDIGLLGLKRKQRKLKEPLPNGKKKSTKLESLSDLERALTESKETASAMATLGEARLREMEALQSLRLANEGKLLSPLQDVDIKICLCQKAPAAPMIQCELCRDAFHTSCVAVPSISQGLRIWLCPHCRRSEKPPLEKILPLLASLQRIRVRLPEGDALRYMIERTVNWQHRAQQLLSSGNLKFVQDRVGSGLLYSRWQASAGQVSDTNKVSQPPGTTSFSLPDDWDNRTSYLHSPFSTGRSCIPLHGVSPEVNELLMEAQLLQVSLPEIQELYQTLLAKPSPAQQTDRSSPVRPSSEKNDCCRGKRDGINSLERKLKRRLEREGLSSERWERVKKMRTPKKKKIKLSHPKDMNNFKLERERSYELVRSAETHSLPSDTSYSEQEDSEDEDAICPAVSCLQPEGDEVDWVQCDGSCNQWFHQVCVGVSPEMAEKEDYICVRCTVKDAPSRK

SMILES | activity change, negative = inhibition | Potency
CC(C)NC(=O)CN(C)CC(=O)NC(=O)NCCC1=CCCCC1 | inactive: 8.15% | –
CCc1ccc(CNC(=O)CN2C(=O)CSc3ccc(S(=O)(=O)N4CCOCC4)cc32)cc1 | inactive: -10.5% | –
O=C(CSc1nc2c([nH]c3ccccc32)c(=O)n1-c1ccc(Cl)cc1)NCc1ccccc1 | – | inconclusive: 25.1 µM [inhibitor, partial curve, poor fit]
CC(C)Cc1nc(NCCN2CCOCC2)c(C#N)c2c1CCCC2 | inactive: -7.95% | –
COc1cc(/C=N/O)cc(I)c1O | inactive: -4.48% | –
COc1ccc(NC(=O)N(Cc2nnc3n2CCCCC3)c2ccc3c(c2)OCO3)cc1 | inactive: -5.44% | –
C[C@]1(CO)[C@H]2Cc3sc(NC(=O)c4cccc(F)c4)nc3[C@@H](CC(=O)N3CCCCC3)[C@]2(C)CC[C@H]1O | – | inconclusive: 28.2 µM [inhibitor, single point]
Nc1cccc(-c2cccc(N)c2)c1 | – | inconclusive: 39.8 µM [inhibitor, single point]
O=C(CCCCCn1c(=O)[nH]c2ccccc2c1=O)NCCc1ccccc1 | – | inconclusive: 35.5 µM [inhibitor, partial curve, poor fit]
COC(=O)c1cccc(Nc2c(-c3ccc(SC)cc3)nc3nc[nH]n23)c1 | – | inconclusive: 0.794 µM [inhibitor, full curve, poor fit]
CN(C)c1nc(-c2cn(CCC#N)c3ccccc23)cs1 | – | inconclusive: 39.8 µM [inhibitor, single point]
CNc1nccc(N2CCC(CC(=O)NCCCN3CCC(C)CC3)CC2)n1 | inactive: -23.5% | –
Cc1cc(N2CCC3(CCCN(CC4CCC4)C3=O)C2)nc2ccccc12 (configuration not stated) | – | active: 28.2 µM
O=C(c1ccc(Cl)cc1)N1CC2(CCCN2CC2CC2)Cc2ccccc21 (configuration not stated) | – | inconclusive: 70.8 µM [inhibitor, partial curve]
CN1CC(=O)N(C2CCCNCC2)Cc2c1ncnc2N1CCC(O)C1 (configuration not stated) | – | inconclusive: 35.5 µM [inhibitor, partial curve]
Cc1ccc2[nH]c(=O)c(CN(C(=O)c3cccnc3)C3CCCCC3)cc2c1 | – | inconclusive: 20 µM [inhibitor, single point]
O=C(NCc1cccc(Cl)c1)c1cnc(N2CCCCC2)c2ccccc12 | – | inconclusive: 39.8 µM [inhibitor, partial curve, poor fit]
CCOc1ccc2oc(C(=O)OCC(=O)NCc3ccc(OC)cc3)c(C)c2c1 | – | inconclusive: 20 µM [inhibitor, single point]
Cc1ccc2[nH]c(C(=O)OCC(=O)N(c3ccccc3)C(C)C)cc2c1 | – | inconclusive: 22.4 µM [inhibitor, partial curve, poor fit]
Cc1ccc2c(=O)cc(C(=O)N(Cc3ccc(Cl)cc3)C3CCS(=O)(=O)C3)oc2c1C (configuration not stated) | inactive: -7.92% | –
COc1ccc(OC)c(S(=O)(=O)Nc2ccc(-c3ccc(N4CCC(C)CC4)nn3)cc2)c1 | – | inconclusive: 39.8 µM [inhibitor, single point]

SMILES | activity change, negative = inhibition | Potency
COc1ccc(CNC(=O)c2cc3n(n2)CC(c2ccc4c(c2)OCO4)OC3)c(OC)c1 (configuration not stated) | – | active: 31.6 µM
CCOc1ccc(C(=O)N2CCCC3(C2)Nc2cccnc2NC3=NC2CCCC2)cc1 (configuration not stated) | – | active: 31.6 µM
CCCN1CCN(c2ncc3c(n2)CCN(Cc2ccc(OC)c(OC)c2OC)C3)CC1 | – | inconclusive: 28.2 µM [inhibitor, single point]
Cc1ccc(NC(=O)Cn2nc(-c3ccc(F)cc3)c3cnc4ccc(C)cc4c32)cc1 | inactive: -3.87% | –
NC(=O)C(=O)N1CCN2C(=O)c3cc(-c4ccc(Cl)cc4)ccc3NC(=O)[C@@H]2C1 | – | inconclusive: 35.5 µM [inhibitor, partial curve]
O=C(O)Cn1ccc2cc(OCC3CCN(C(=O)Cc4ccccc4)CC3)cnc21 | – | active: 39.8 µM
O=C(N[C@@H]1CN(c2ncccn2)C[C@H]1CO)c1nccc2ccccc12 | – | inconclusive: 15.8 µM [inhibitor, partial curve, poor fit]
CCN(CC)C(=O)CSc1nc(-c2ccccc2)c(-c2ccccc2)o1 | – | inconclusive: 31.6 µM [inhibitor, single point]
CCOC(=O)c1c(S(=O)(=O)NCC(=O)Nc2ccc(Cl)c(C(F)(F)F)c2)c(C)n(C)c1C | – | inconclusive: 0.794 µM [inhibitor, partial curve, poor fit]
COc1ccc(-c2ocnc2C(=O)NCc2cc(OC)ccc2OC)cc1 | – | inconclusive: 35.5 µM [inhibitor, single point]
CCOC(=O)c1cnc2ccccc2c1N1CCOCC1 | inactive: 11.2% | –
CCOCC(=O)Nc1nn(-c2ccc(F)cc2)c2cccc(N3CCOC3=O)c12 | – | active: 25.1 µM
CC(Cl)C(=O)c1ccc(C(C)(C)C)cc1 (configuration not stated) | inactive: 18.6% | –
COC[C@@H]1[C@H](C(=O)Nc2cc(OC)ccc2OC)CCC(=O)N1C | – | inconclusive: 11.2 µM [inhibitor, partial curve, poor fit]
Cc1nn(-c2ccccc2[N+](=O)[O-])c(C)c1[C@@H]1C=C[C@@H](NCc2ccc(C(C)C)cc2)C1 | – | inconclusive: 22.4 µM [inhibitor, partial curve]
O=C1/C(=C/c2cccc([N+](=O)[O-])c2)CCOc2ccc(F)cc21 | – | inconclusive: 31.6 µM [inhibitor, partial curve, poor fit]
CC1(COc2ccc(-c3nc(COc4ccccc4)no3)cn2)CCCNC1 (configuration not stated) | – | inconclusive: 39.8 µM [inhibitor, single point]
CCOc1ccc(C(=O)Nc2ccc3nc(NC(C)=O)sc3c2)cc1OCC | – | inconclusive: 39.8 µM [inhibitor, single point]
Cn1c(CBr)c(C(=O)c2ccc([N+](=O)[O-])cc2)c(=O)n(C)c1=O | – | inconclusive: 39.8 µM [inhibitor, partial curve, poor fit]
CCOC(=O)c1cc(NC(=O)c2cc(Br)cc(C)c2OC)ccc1N1CCOCC1 | – | inconclusive: 39.8 µM [inhibitor, single point]
Cc1ccccc1OCCN(C)Cc1cc(=O)oc2c(C)c(O)ccc12 | – | inconclusive: 28.2 µM [inhibitor, partial curve, poor fit]

From PubChem BioAssay AID1347165 (National Center for Advancing Translational Sciences (NCATS), 2019)
